Experimental data from publication PMC4336329 (PLoS ONE, 2015).
About 2,200 (0.71%) of roughly 310,000 compounds showed an effect of 50% or more. Effects have a minus sign here. The list shows a part of the results.

biological target: human ether-à-go-go-related gene (hERG) potassium channel (human, UniProt Q12809); test: primary screen, population patch clamp on CHO cells stably expressing hERG
Sequence (Q12809 whole entry, looked up): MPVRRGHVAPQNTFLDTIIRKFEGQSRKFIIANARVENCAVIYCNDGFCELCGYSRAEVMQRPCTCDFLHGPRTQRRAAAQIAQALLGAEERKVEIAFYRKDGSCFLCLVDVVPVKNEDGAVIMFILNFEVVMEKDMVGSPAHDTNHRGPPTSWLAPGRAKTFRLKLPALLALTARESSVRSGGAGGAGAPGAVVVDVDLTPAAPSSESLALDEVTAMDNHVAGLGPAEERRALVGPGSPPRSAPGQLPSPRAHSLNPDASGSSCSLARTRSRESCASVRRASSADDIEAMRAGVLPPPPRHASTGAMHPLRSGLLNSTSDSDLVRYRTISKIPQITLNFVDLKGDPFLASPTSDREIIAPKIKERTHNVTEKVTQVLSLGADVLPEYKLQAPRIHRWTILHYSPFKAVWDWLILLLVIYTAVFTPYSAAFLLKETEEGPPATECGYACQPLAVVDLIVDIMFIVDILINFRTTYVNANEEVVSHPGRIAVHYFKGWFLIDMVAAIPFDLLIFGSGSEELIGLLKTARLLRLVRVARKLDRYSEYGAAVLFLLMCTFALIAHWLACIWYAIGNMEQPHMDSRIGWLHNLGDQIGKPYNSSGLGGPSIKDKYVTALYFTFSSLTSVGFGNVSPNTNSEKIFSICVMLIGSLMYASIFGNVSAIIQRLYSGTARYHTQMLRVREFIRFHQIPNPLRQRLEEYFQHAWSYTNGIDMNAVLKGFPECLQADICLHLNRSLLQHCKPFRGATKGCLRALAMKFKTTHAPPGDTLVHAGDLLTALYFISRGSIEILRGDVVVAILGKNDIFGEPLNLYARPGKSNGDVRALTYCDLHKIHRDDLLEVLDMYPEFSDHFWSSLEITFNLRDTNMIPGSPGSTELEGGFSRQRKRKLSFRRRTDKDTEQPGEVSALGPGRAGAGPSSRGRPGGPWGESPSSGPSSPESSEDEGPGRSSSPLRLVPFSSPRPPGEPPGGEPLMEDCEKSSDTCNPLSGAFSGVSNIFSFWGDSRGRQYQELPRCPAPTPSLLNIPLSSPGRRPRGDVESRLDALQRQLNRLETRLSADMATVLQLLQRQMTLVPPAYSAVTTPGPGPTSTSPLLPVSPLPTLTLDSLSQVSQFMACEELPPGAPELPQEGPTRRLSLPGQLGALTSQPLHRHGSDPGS

Point of comparison: `COc1ccc(NC(=O)CSc2nc(C)c3c(c2C#N)CCCC3)cc1`, “hERG current change (%, negative = inhibition) at 1uM” value 10.1%. Against it:
- CCCCc1ccc(NC(=S)NCc2ccc(OC)cc2)cc1 — lower, 0.183%
- Oc1ccccc1C1=NOC(O)(C(F)F)C1 (centres unmarked) — lower, 3.4%
- COc1cc(OC)cc(C(=O)Nc2ccc3nc4n(c(=O)c3c2)CCCCC4)c1 — lower, -1.21%
- C=CCN(c1ccccc1)S(=O)(=O)c1ccc2c(c1)NC(=O)C(C)C(=O)N2 (centres unmarked) — higher, 13.6%
- C=C(C)CN(CC)C(=O)CC1C(=O)NCCN1Cc1c(F)cccc1Cl (centres unmarked) — higher, 14.3%
- Cc1nn(C)cc1CNC(=O)COc1ccc(Cl)cc1Cl — lower, 8.82%
- Cc1ccn2c(=O)c(C(=O)NCCN3CCOCC3)c(O)nc2c1 — higher, 18.8%
- CC(=O)Nc1ccc(S(=O)(=O)n2cnc(C)c2)cc1 — lower, -8.9%
- CC(=O)Oc1ccc(-c2cccc(C(=O)OCC(=O)Nc3ccccc3Oc3ccccc3)c2)cc1 — lower, 7.3%
- Cc1ccc(N2C(=O)C3CCCN3C2=S)c(C)c1 (centres unmarked) — higher, 17.5%
- Cc1ccc(CN2C(=O)CCC2C(=O)NCC2CCCO2)cc1 (centres unmarked) — lower, 3.33%
- CCCNNC(=O)C(O)(c1cccc(C)c1)c1cccc(C)c1 — lower, 8.76%
- O=P1(NC2CCCC2)COc2ccccc2OC1 — lower, 7.09%
- Cc1cc(C)c(C)c(N=Nc2nc3ccccc3n2C)c1C — lower, 6.18%
- CCOC(=O)c1sc(NC(=O)CCCn2nc([N+](=O)[O-])cc2C)c(C(=O)OCC)c1C — lower, 1.73%
- C=CCNC(=O)/C(C#N)=C/c1ccccc1OCc1ccc(C(=O)OC)cc1 — lower, -3.67%
- CC(C)NC(=O)c1nn2c(C(F)(F)F)cc(-c3ccco3)nc2c1Cl — higher, 12.5%
- COC(=O)Cc1c(C)c2ccc(OCC(=O)N(C)C3CCS(=O)(=O)C3)cc2oc1=O (centres unmarked) — higher, 18.4%
- O=C1CN(S(=O)(=O)c2ccc(F)cc2)c2ccccc2N1 — lower, 0.33%
- S=C(NN=C1CCN(Cc2ccccc2)CC1)NC1CCCCC1 — lower, 7.39%
- O=C(Nc1ncccn1)c1cccc(F)c1 — lower, 0.714%
- CN1C[C@H](CNC(=O)OCc2ccccc2)C[C@@H]2c3cccc4c3c(cn4C)C[C@H]21 — lower, -1.63%
- C/C(=N\NC(=O)c1ccncc1)c1cccc(NC(=O)c2ccc(Cl)s2)c1 — lower, 4.44%
- Cc1cc(C(=O)NC(C)C2CCCO2)cs1 (centres unmarked) — lower, 4.23%
- CCc1ccc(C(=O)Nc2ccc3nc(C)ccc3c2)cc1 — higher, 10.3%
- COc1ccc(NC(=O)N2CCN(S(=O)(=O)c3ccc(F)cc3)CC2)c(OC)c1 — lower, 8.34%
- CC(C)Sc1nc2ccccc2n2cnnc12 — higher, 13.3%
- Cc1ccc2c(c1)CCCN2C(=O)C1CCCO1 (centres unmarked) — higher, 15.3%
- CCN(c1ccccc1)S(=O)(=O)c1ccc2[nH]c(=O)c(=O)[nH]c2c1 — lower, 8.57%
- COc1ccc2oc(=Nc3ccccc3)c(-c3nc4ccccc4[nH]3)cc2c1 — higher, 18.1%
- c1ccc2sc(SCc3ccc(-c4nnco4)cc3)nc2c1 — lower, 6.03%
- COc1ccccc1NS(=O)(=O)c1cc(NC(=O)CNC(=O)c2ccccc2)ccc1C — higher, 14.4%
- O=C(Cc1cc(=O)[nH][nH]1)N/N=C/c1cccc(Cl)c1Cl — lower, 7.82%
- Cc1noc(C)c1CSc1nc2ccccc2n1CCc1ccccc1 — lower, -6.26%
- CN(CCS(=O)(=O)c1ccc(Cl)cc1)Cc1cccnc1 — higher, 11.5%
- CC1CCCCC12NC(=O)N(CC(=O)Nc1ccc(S(=O)(=O)N3CCOCC3)cc1)C2=O (centres unmarked) — lower, -3.77%
- Cc1[nH]nc(SCC(=O)N2CCOCC2)c1[N+](=O)[O-] — higher, 11.7%
- NS(=O)(=O)c1ccc(N/N=C/c2ccncc2)cc1 — higher, 17.1%
- CC(Sc1nnc(C2CC2)n1C1CC1)C(=O)N(C)Cc1cccc(F)c1 (centres unmarked) — lower, -2.8%
- Cc1cc(N=Cc2c(O)ccc3ccccc23)no1 — lower, 2.62%
- COc1ccccc1N1CCN(C(=O)Cn2c(=O)oc3cc(S(=O)(=O)N4CCCC4)ccc32)CC1 — lower, 9.66%
- C=CCNC(=O)C1CC(=O)N(c2ccc(Br)cc2)C1 (centres unmarked) — lower, 4.58%
- COc1ccc(OC)c(S(=O)(=O)Nc2ccc(C(N)=O)cc2)c1 — lower, 9.88%
- O=C1OCCC1Sc1nnc(-c2ccco2)o1 (centres unmarked) — higher, 13.7%
- O=C(CCNS(=O)(=O)c1ccc(Br)s1)NCc1ccccc1 — higher, 10.8%
- CCC(=O)Nc1ccc2c(c1)Cc1cc(NC(=O)CC)ccc1-2 — higher, 13.4%
- COc1ccnc(Oc2ccccc2)c1C(=O)N/C=N/OCc1ccc(F)cc1Cl — lower, 4.74%
- CN(C)S(=O)(=O)c1cc(NC(=O)CSc2ncc(C(F)(F)F)cc2Cl)ccc1Cl — lower, -0.599%
- Cc1cc(C(=O)CSc2ncn[nH]2)c(C)n1-c1cccc(S(=O)(=O)N2CCOCC2)c1 — lower, 9.69%
- OC1CCCN(Cc2nc(Cc3ccccc3Cl)no2)C1 (centres unmarked) — lower, 9.7%
- N#Cc1c(NC(=O)Cn2cnc3ccccc3c2=O)oc(-c2ccccc2)c1-c1ccccc1 — lower, 5.76%
- COc1ccc(C(=O)N=c2sc3ccccc3n2C)cc1OC — lower, 6.97%
- COC(=O)[C@@H](NC(=O)N1CCC(C)CC1)C(C)C — lower, 2.4%
- COc1ccc(NC(=O)C2CC2)cc1OC1CCCC1 — higher, 10.5%
- CCCN(C(=O)c1cccs1)c1nnc(-c2ccncc2)s1 — lower, 7.22%
- CCC(=O)NCCSc1c[nH]c2ccccc12 — lower, 5.02%
- CCNC(=O)/C(C#N)=C/c1c(N2CCCCCC2)nc2ccccn2c1=O — lower, 2.33%
- O=C(N/C(=C/C=C/c1ccccc1)C(=O)N1CCCCC1)c1ccc([N+](=O)[O-])cc1 — lower, -27.4%
